Results from the RNAGym collection of RNA variant scans (doi:10.7554/elife.90254).
The source gives no read counts; variants with many changes may rest on few reads.

B1: LINE1-mini (parent)
chain: GGCAGAGCUCAACACAGCGUGGCAAAGUGGCUGUGGCUAGACUGCC

Variants of: B1
Assay: self-cleavage, relative activity (ratio to wild type); higher = more cleavage; in vitro, sequencing; the parent is a self-cleaving ribozyme

| Variant | self-cleavage |
| --- | --- |
| C10A C13U C15G | 0 |
| C10U G19A U43A | 0.02 |
| A4G U20C G21A | 0.26 |
| C15A C31A G35U | 0.03 |
| C8A C13A G19A G21A G22A U28C G30C | 0.16 |
| C3U C37U G44U | 0.04 |
| G7U C8U A11C | 0.04 |
| C3U G5U C31A G35U U38G | 0.18 |
| G1A C31A C37U A41U C46A | 0.04 |
| G19A G27U U28G U32G G36U | 0.05 |
| C23G G36A A41C U43A | 0.05 |
| A6G U9G U28A | 0.28 |
| A14U C18U A41C | 0.08 |
| A14G U28A U34A G44U | 0.02 |
| A4G G29C A39C | 0.03 |
| G5U C18A C37A | 0.03 |
| A12G C18A U32C A41G C45A | 0.05 |
| G7U C23U G29U C45A | 0.01 |
| A12G G29U G33C C37U A41G C42A | 0.02 |
| U9A C10G U20A U32A G36A A41G | 0.02 |
| G2U U9A C46A | 0.12 |
| A4G G33A C37A C42U C46U | 0.02 |
| G5U A6U C8A G19A C31G | 1.15 |
| A26U G27C U34A C37U | 0.04 |

| Variant | self-cleavage |
| --- | --- |
| C3G G40A A41U U43A | 0.06 |
| A6C C10U C23U C31A | 0.05 |
| A4G C10U G35U | 0.11 |
| G1A G27A G36C | 0.06 |
| C23G G40C C42U | 0.01 |
| C18U G21U U28G G30U C46A | 0.94 |
| G7C C10A A12U G17A | 0.03 |
| A4G G27U G30A A41C | 0.03 |
| C15G U20C G40U C45G | 0.01 |
| G17A A26C C45A | 0.01 |
| U9A A12C C37A A41G | 0.04 |
| C3G C8A A25G G36C C37U | 0.48 |
| A16U A24C G33C G40C | 0.02 |
| G1C A11C G17A | 0.02 |
| G2A C10G G35U C46A | 0.03 |
| G2A C3G C46G | 0.15 |
| A26G G35A C37U U43A | 0.02 |
| G2U C3G C31A U34A G35C | 0.02 |
| G5C C10A C31G | 0.04 |
| U9G A11U C42U G44A | 0.05 |
| C18U C37G A41U U43A | 0.02 |
| C18A C31U C45U | 0.04 |
| A14C G33U G44A | 0.05 |
| A6G C18G C31U | 0.06 |

| Variant | self-cleavage |
| --- | --- |
| C3G G5C C18G A26C | 0.03 |
| G1U C3U A25U G44C C45A | 0.13 |
| C13A G40A G44U | 0.11 |
| C3U G22U G27U G40A | 0.04 |
| A6U C15G U20G U28C | 0.02 |
| U9A U20A C23U | 0.1 |
| C10U C13G C15A G22A A41U | 0.04 |
| G5U C8G G17A | 0.14 |
| C3U C10U G21C G22U A24C A41C | 0.02 |
| G2C G17U G33C | 0.03 |
| G17U C18U U20C A24G G30U | 0.02 |
| G2U C3G A14C A16U | 0.02 |
| C3A A11U A39C G44A | 0.02 |
| G1C G2C C13A A16C U28A U34C G36A | 0.21 |
| C15U G19U G21C U34G | 0.02 |
| G5U G19U G44C | 0.05 |
| G7U C10G C13A G33A G36A G40A G44A | 0.02 |
| G2C G7C C8U A26G A39G C45U | 0.23 |
| C10A G21U U43C | 0 |
| C8A G27C C46A | 0.08 |
| G2U A16G A25U C37U | 0.03 |
| A14C C18A C31A A39C | 0.05 |
| A14U A25G G36U | 0.01 |
| C15U G29U C37A C42U | 0.05 |

| Variant | self-cleavage |
| --- | --- |
| C15A G33U A41C C46U | 0.03 |
| G1U C3A C18A C23U | 1.85 |
| C3U G5U A6U | 1.3 |
| G7C A24C G44A | 0.04 |
| U20A U28G A41G | 0.05 |
| A4C C10U A25U G35U U43A C45A | 0.02 |
| A12G C15A G36U G40C | 0.01 |
| G7A A16C C23U G29C U34C C45U | 0.11 |
| G1C C10A C13G C37G | 0.01 |
| G1A G2U G19C G40U | 0.02 |
| G1C G22A A26G U32G | 0.06 |
| G7U C15A A39G | 0.14 |
| A6G A11C C15U | 0.01 |
| C10A A14C G22C U32A | 0.01 |
| G5C C23U G29U | 0.13 |
| C10U C45G C46G | 0.06 |
| A4U G27A U32A G40C U43C C45U | 0.02 |
| G21C G22A C23G | 0.3 |
| A24C A26U G27U | 0.74 |
| C15U G19U G29U A39G | 0.11 |
| A14U G22C G29A G40C | 0.11 |
| A14G G36U G40A G44U | 0 |
| G5A G7A C23G | 0.26 |
| A11U G21C A26U | 0.04 |

| Variant | self-cleavage |
| --- | --- |
| C23A G29A G33U G35C | 0.02 |
| G5U C13U G22U C23G A39C U43C | 0.01 |
| G2A C10U G27U U32G | 0.05 |
| G19U G40U A41G | 0.05 |
| G27A U32G G40U | 0.51 |
| U9G C13A A24G | 0.05 |
| C15U G17C C23U | 0.05 |
| C13U C18A C46A | 0.07 |
| G17A C18G A39G A41U | 0.04 |
| A4U C8A U20C A26G G40U G44C C46U | 0.05 |
| G36A G40C C45A | 0.07 |
| U34C C37U C42A | 0.02 |
| U9G C13A G21A U32C | 0.1 |
| A4G G7C C13G G19C G27C | 0.02 |
| G7U C18U C31G G33C G36A A41C | 0.01 |
| G40C G44C C45U | 0.03 |
| G7A A26U G40U | 0.27 |
| G33U U38A G40C | 0.03 |
| G2U G5U G33U | 0.01 |
| G7A C10U G22C A24C | 0.01 |
| A4G C8A G21U | 0.07 |
| A4C G27C A39C A41C U43G | 0.12 |
| C10A C15G G21U G27A G33C | 0.01 |
| A6G C10U A16G G19C C45A | 0.03 |

| Variant | self-cleavage |
| --- | --- |
| A14C C18U C31U | 0.01 |
| G2A G7A U43C | 0.37 |
| G2C A26C G29A G44U | 0.01 |
| G7U U20A U28A G33C C45G | 0.01 |
| G5A C13A A26U G27C U34G | 0.04 |
| C3U C15A A16C A25C | 0.07 |
| G7A G21U G27A U38A G44U | 0.05 |
| C3A C8G C18U A24U A25G | 0.28 |
| C18U G27U C42U | 0.16 |
| C23U C31A G35A A41C | 0.02 |
| C13U C18U G19U A24C | 0.05 |
| G2C G21U A26C | 0.04 |
| C3G A11G G21U U32A U38A | 0.02 |
| C3U A16C G29C G30U G33U | 0.05 |
| C3U A6U A16C C23A C46G | 0.12 |
| A4G G5U G44A | 0 |
| C3G A6G U20A G29C G36U | 0.06 |
| G1U C3A G5C G35A A39G | 0.11 |
| A39U G40A C46A | 0.07 |
| G22A A26C A41C | 0.01 |
| C13G C23A G35U | 1.18 |
| G2C U9C G21A G22C | 0.01 |
| G19U G21C G35U | 0.02 |
| G7C U9C G22C G29A | 0 |

| Variant | self-cleavage |
| --- | --- |
| G7U G35A G40U G44A | 0.03 |
| C8A U20C G30U G35U | 0.08 |
| A26G A41U C46A | 0.08 |
| U9G C13U A16C G36U A39U | 0.05 |
| G22A G33A G35U U38A | 0.04 |
| C15A A24G U34A | 0.09 |
| C13A G17C G40A A41G | 0.04 |
| G2C U9C A12G G22U U32A | 0.03 |
| C10U G17U U20G G21U G33C | 0.02 |
| C3A G21C U43G | 0.03 |
| C13U G29C G40A | 0.03 |
| G1C A4G U9C C18A C23G A26U G35U C37A C46A | 0 |
| A6U A12U G21A | 0.27 |
| G7A C8U C37G G40A | 0.06 |
| A6U C23A A26G G29C G40A | 0.01 |
| G2U C3A G7U G29C | 0.01 |
| U9A A16C G21U G22U U34G U38G A41G | 0.02 |
| C8G C13G G17A C18U C23U C45U | 0.05 |
| C3U C13G C23A | 0.16 |
| A12C U20G G40C | 0.02 |
| U9A A11U G29U | 0.01 |
| G5C U9C A14G C15A U32G G33U | 0.02 |
| G2C A11U G19C G30A G35U U43G C45A | 0 |
